Out of some 330,000 compounds screened, about 4,200 (1.3%) were called active. The inconclusive results got no clear call from the source; some entries with a clear call stand among them for comparison. Calls follow the shape of the dose curve; as a rule, active = well fitted activation curve with a large enough effect; inconclusive = small, poorly fitted or top-dose-only effect; inactive = no such curve, though single readings can be large or run the other way. Potencies of inconclusive entries are doubtful fits and often do not repeat.
Test: qHTS screen for small molecules that induce genotoxicity in human embryonic kidney (HEK293T) cells expressing luciferase-tagged ELG1; also: nearly all actives have a fitted effect of over 60% in size; as to activity change, positive = activation: % of control where 0% means no effect
Details: HEK293T ELG1-luciferase reporter, luminescence, 16 h; series mostly up to 46 µM; activity change, positive = activation: at the top concentration
How it was run: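 Genotoxic stress is detected as increased luminescence from luciferase-tagged ELG1 in HEK293T cells, measured with ONE-Glo after a 16 hr treatment at 37 °C.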
Potency is read from the fitted curve at half-maximal effect; tags tell the direction and shape of the fitted curve.

| SMILES | Potency | activity change, positive = activation |
| --- | --- | --- |
| O=C(NCCc1c[nH]c2ccccc12)c1cc(Cl)c2c(c1)OCO2 | inconclusive: 3.55 µM [activator, single point] |  |
| Cc1ccc2nc(SCc3ccc([N+](=O)[O-])cc3)nc(C)c2c1 | inconclusive: 20.6 µM [activator, single point] |  |
| Cc1ccc(-c2nnc(/C=C/c3ccccc3)o2)cc1 | inconclusive: 18.4 µM [activator, partial curve] |  |
| O=C(NC1CCCCC1)C(=O)c1c[nH]c2ccccc12 | active: 14.6 µM |  |
| COc1cc(CO)cc(Br)c1OCC(=O)N1CCCCC1 | inconclusive: 29.1 µM [activator, partial curve, poor fit] |  |
| CCc1ccc(C(=O)Nc2cc3c(cc2Cl)OCCCO3)cc1 | inconclusive: 6.51 µM [activator, partial curve] |  |
| COc1cccc(NC(=O)N2CCCCCC2)c1 | inconclusive: 18.3 µM [activator, partial curve] |  |
| COc1ccccc1OC(=O)c1cc(Cl)nc2ccccc12 |  | inactive: -1.18% |
| O=C(CCc1ccccc1)Nc1ccc(NC(=O)c2ccco2)cc1 | inconclusive: 14.6 µM [activator, partial curve, poor fit] |  |
| Cc1ccc(N(CCO)C(=S)Nc2ccccc2)cc1 |  | inactive: 2.63% |
| COCCCOc1ccnc(CS(=O)c2nc3ccccc3[nH]2)c1C (configuration not stated) |  | inactive: 14.3% |
| CCOc1ncccc1C(=O)OCC(=O)Nc1ccc(-c2nc3ccc(C)cc3s2)cc1 | active: 7.31 µM |  |
| CC(C)c1nnc(NC(=O)COc2ccccc2[N+](=O)[O-])s1 | inconclusive: 20.6 µM [activator, partial curve, poor fit] |  |
| CCC1CCc2sc(C(=O)NC3CCN(Cc4ccccc4)CC3)cc2C1 (configuration not stated) | inconclusive: 16.4 µM [activator, partial curve, poor fit] |  |
| Cc1ccc2[nH]c(C(=O)N3CCCCC3)cc2c1 | inconclusive: 18.3 µM [activator, partial curve, poor fit] |  |
| COC(=O)c1ccc(NC(=O)C(=O)N2CCCC2)cc1 | inconclusive: 2.31 µM [activator, full curve] |  |
| C[C@H](CO)N1C[C@H](C)[C@@H](CN(C)C(=O)Nc2ccc(C(F)(F)F)cc2)Oc2c(NC(=O)Cc3ccccc3)cccc2C1=O |  | inactive: 0.515% |
| Cc1ccc(OCc2ccc(C(=O)O)o2)cc1C | inconclusive: 2.06 µM [activator, full curve, poor fit] |  |
| CC(Oc1ccc(Br)cc1)C(=O)Nc1nnc(C2CC2)s1 (configuration not stated) |  | inactive: -0.0413% |
| COc1ccc(NC(=O)c2[nH]c(C)c(C(C)=O)c2C)cc1 | inconclusive: 16.4 µM [activator, partial curve] |  |
| COc1ccc2c(c1OC)C(=O)N(c1ccc(OCc3ccccc3)cc1)C2=O |  | inactive: 1.19% |
| CCOC(=O)c1sc(-c2ccc(F)cc2)cc1N | active: 14.1 µM |  |
| CC/C=C(\NC(C)=O)c1ccccc1 |  | inactive: 3.41% |
| COc1ccc(CC(=O)Nc2ccc(-c3cn4ccccc4n3)cc2)cc1 | inconclusive: 5.8 µM [activator, full curve] |  |

| SMILES | Potency | activity change, positive = activation |
| --- | --- | --- |
| COc1ccc(N2CCN(C(=O)CCS(=O)(=O)c3ccc(C)cc3)CC2)cc1 |  | inactive: -7.88% |
| CN1CCN(CCC(=O)Nc2ccc(F)c(F)c2)CC1 | inconclusive: 16.4 µM [activator, partial curve, poor fit] |  |
| O=C(NCc1ccccc1)NC1CCCCC1 | inconclusive: 29.1 µM [activator, partial curve, poor fit] |  |
| CC(=O)c1ccc(NC(=S)N2CCCC2)cc1 | inconclusive: 20.6 µM [activator, partial curve, poor fit] |  |
| Nn1c(-c2ccccc2Cl)nnc1-c1ccccc1Cl | inconclusive: 20.6 µM [activator, partial curve] |  |
| O=C1CN(C(=O)OCc2ccccc2)c2ccccc2N1 | inconclusive: 16.4 µM [activator, partial curve, poor fit] |  |
| Cc1ccc(Oc2ccc(OCC(=O)Nc3ccncc3)cc2)cc1 |  | inactive: 3.16% |
| C/C(=N\NC(=O)c1ccc(Cl)cc1)c1cccnc1 | inconclusive: 16.4 µM [activator, partial curve, poor fit] |  |
| Cc1ccc(C2C3=C(CC(C)(C)CC3=O)NC3=C2C(=O)CC(C)(C)C3)o1 | inconclusive: 20.6 µM [activator, partial curve, poor fit] |  |
| O=C(Nc1ccc2[nH]c(=S)sc2c1)Nc1ccccc1F | active: 0.58 µM |  |
| CCN(CC)C(=O)c1ccc(COc2ccccc2Cl)cc1 | inconclusive: 32.6 µM [activator, partial curve, poor fit] |  |
| N#Cc1c(NC(=O)CSc2n[nH]c(Cc3ccccc3)n2)oc(-c2ccccc2)c1-c1ccccc1 |  | inactive: -1.59% |
| Cc1cc(N=Nc2ccc(C)c(N=Nc3cc(C)c(N)cc3N)c2)c(N)cc1N | active: 2.31 µM |  |
| COc1ccc(NC(=O)c2cccs2)c([N+](=O)[O-])c1 | inconclusive: 10.3 µM [activator, partial curve, poor fit] |  |
| NC(=O)c1ccccc1NC(=O)COc1ccc2c(c1)OCO2 | inconclusive: 2.06 µM [activator, full curve] |  |
| COc1cc(C2CC(=O)Oc3cc(C)cc(C)c32)cc(OC)c1OC (configuration not stated) |  | inactive: 4.18% |
| CC(C(=O)Nc1nccs1)N1C(=O)C2CC=CCC2C1=O (configuration not stated) | inconclusive: 16.4 µM [activator, single point] |  |
| COc1cc(/C=N/NC(=O)c2ccc3c(c2)OCO3)ccc1O | inconclusive: 23.1 µM [activator, partial curve, poor fit] |  |
| Cc1cc(C)n2nc(C(=O)NCc3ccccc3)cc2n1 |  | inactive: 7.3% |
| COc1cc(/C=C2/C(=O)c3cccc([N+](=O)[O-])c3C2=O)c(Br)cc1O |  | inactive: -6.04% |
| COC(=O)c1ccccc1N/C=C1\CCc2c(c(C)nn2-c2ccccn2)C1=O |  | inactive: -1.51% |
| CC(=O)c1cc(C#N)c(NCc2ccccc2)nc1C | inconclusive: 20.6 µM [activator, partial curve] |  |
| CC(C)(C)c1ccc(C(=O)Nc2ncn[nH]2)cc1 | inconclusive: 4.11 µM [activator, full curve] |  |
